The list shows a part of the results.
tested on: PfSIP2 AP2 domain 1 (GST-tagged); test: gcPBM binding intensity (ln(normalized median fluorescence intensity)); higher = stronger DNA binding
In short: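 Probes on an Agilent 4 × 180k array were primer-extended, double-stranded and 36 bp long, taken from intergenic genomic regions, with negative controls added. GST-tagged P. falciparum DNA-binding domains from E. coli, about 25 μg on average, were applied to the array for 1 h in 1× PBS containing 1% milk, 0.2 mg/ml BSA, 0.5% salmon testes DNA and 0.03% Triton X-100. Binding intensity, obtained after Alexa488 anti-GST antibody detection and a 488 nm scan, is the highest Masliner-normalised natural-log median intensity across replicate spots of either probe orientation.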

Compared with “AAAACATCAAAAATGTGTACATATATATATATATAT [XGTACX_site8884]”, “ATATATATATATGCATGTACATATTTATCTTTATAT [XGTACX_site232]” is lower in “gcPBM binding intensity (ln)” value: 9.78 for the first, 9.17 for the second.

Compared with “AATTTAAAACGGAGATGTACATATATAAATATATAC [XGTACX_site3723]”, “TATTTTTTATTTTAAATCCTCTGATATTTAATTTGT [TGCATGCA_negctrl_site84]” is lower in “gcPBM binding intensity (ln)” value: 7.08 for the first, 6.62 for the second.

Compared with “TATCCCCTTGTCCATATTAATTGTGACATCATATAT [XGTACX_negctrl_site9]”, “ATGTGTATATATATGTGTACATAATTTGTGTTATTC [XGTACX_site2509]” is higher in “gcPBM binding intensity (ln)” value: 7.09 for the first, 7.26 for the second.

Going from “AAGGTATAATATATTTGTACATATACATTTTTGAAT [XGTACX_site6493]” to “TGAAAAATGTAATGCTCACACATATATATATATATA [CACACA_site5213]”, the “gcPBM binding intensity (ln)” value rises from 6.98 to 9.69.

Compared with “GATTTTAATGGGTGTACACATTTATTTATATAAAGT [CACACA_site5317]”, “TTATGGTGCATGAAATCACACATTGATATATATGCT [CACACA_site5352]” is higher in “gcPBM binding intensity (ln)” value: 7.54 for the first, 11.3 for the second.

Going from “ATATATATATATATATGTACATATATATATTATATT [XGTACX_site6303]” to “GTGTCTTTTATTAAATGTACATATTCATAGATAAAA [XGTACX_site8578]”, the “gcPBM binding intensity (ln)” value falls from 9.58 to 7.53.

Compared with “TTATTTTTTTGGAATTCACACACAAAAAAAAAAATA [CACACA_site8650]”, “AATTGAGAAGTGTGTTGTACATAATGGCACATACCT [XGTACX_site1370]” is higher in “gcPBM binding intensity (ln)” value: 6.98 for the first, 7.22 for the second.

First: TAGAATGAAAAAAAAGCATGCGGGCAAAAATTTTTA [TGCATGCA_site926]
Second: ACCTTAAAAATAACTGCACACAAAAATAAATACCTT [CACACA_site8902]
The “gcPBM binding intensity (ln)” value of the first is lower: 6.75 for the first, 7.71 for the second.

Compared with “ACGTAAACATGTAGAAGGCATTACACAATGGTATAC [TGCATGCA_negctrl_site512]”, “TATATATATATGTGTACACATGTCGCATTTTTTTAT [CACACA_site4648]” is higher in “gcPBM binding intensity (ln)” value: 6.75 for the first, 9.08 for the second.

Going from “GATATTATAAAATAAAAATAAATCATTTCTATTCAT [CACACA_negctrl_site334]” to “TTATGTGTATAGGTTTGTACATAAAATGATGTATAG [XGTACX_site1401]”, the “gcPBM binding intensity (ln)” value rises from 6.53 to 7.04.

First: TCATGGAATATTTAAAGTACAAAAAGTGTTCTTTAC [XGTACX_site715]
Second: TAGTCATATATATATGTACACACATATATATATTTA [CACACA_site8413]
The “gcPBM binding intensity (ln)” value of the first is lower: 6.95 for the first, 7.03 for the second.

First: ATATATTATGGGTGTGCACACAATATTTATATGTTC [CACACA_site2270]
Second: TTATAATAAATATATAAAAAAAAAAAAAAAAAAAAA [CACACA_negctrl_site1639]
The “gcPBM binding intensity (ln)” value of the first is higher: 8.64 for the first, 7.19 for the second.

Going from “TGATAGCACCTTATATGTACATATAATATATTATTA [XGTACX_site837]” to “TTTTCTTATAAATGAAGTACAAAAAAAAAATATATA [XGTACX_site1352]”, the “gcPBM binding intensity (ln)” value falls from 8.88 to 7.13.

Going from “ACATATATGGAGCTTATACACACTTTTATATTTTAA [CACACA_site3854]” to “TTATCATATAATTATTGTACTAAAAAAAAAGCGAGT [XGTACX_site3086]”, the “gcPBM binding intensity (ln)” value rises from 6.91 to 7.87.

First: TTTTAAATATGCCATACACACTACTCTATAATAAAT [CACACA_site6987]
Second: TAAAAGTTCACCTGTACACACATATAAATATGTACA [CACACA_site6901]
The “gcPBM binding intensity (ln)” value of the first is higher: 7.01 for the first, 6.92 for the second.

Going from “CGTTTTCTATATCATTGTACATATTCATGTGTAAAT [XGTACX_site2741]” to “AACAGACGAAGACACACACACATATATATATATATA [CACACA_site1020]”, the “gcPBM binding intensity (ln)” value rises from 7.13 to 9.72.

First: ATTAATAAATTCAATTGTACTTGTTTATACATAAAA [XGTACX_site3733]
Second: TTGTTTAAGTCACGAACACACATATATCATCAATTT [CACACA_site986]
The “gcPBM binding intensity (ln)” value of the first is higher: 6.95 for the first, 6.93 for the second.

First: AAAATTAACCGTAACACACACACATATAAATATGTA [CACACA_site7791]
Second: TTATTTTATTTTTGTGCACACTGATAAATTGAAAAG [CACACA_site2949]
The “gcPBM binding intensity (ln)” value of the first is lower: 7.14 for the first, 10.2 for the second.

Going from “TTATGGTGCAACATTATGCACACCGTTAAATAACTA [CACACA_site3846]” to “ATTTATTTTGTTGTTGTTTTTATTTGATTGTTTTAT [CACACA_negctrl_site1275]”, the “gcPBM binding intensity (ln)” value falls from 11.9 to 6.86.

Compared with “GTTTGAATGGCGCACTGTACACATATATACATATAG [XGTACX_site8619]”, “ATTTATGAAAAATGTACACACATCAAATGCTTATAT [CACACA_site4068]” is lower in “gcPBM binding intensity (ln)” value: 8.38 for the first, 6.99 for the second.

First: ACAAAATTATGTAGATGTACAGACATAGAAAGAGAT [XGTACX_site3096]
Second: ATAACAAAAAAAAAGGTGCTACAAAATGAATAAAAA [GTGCAC_site9659]
The “gcPBM binding intensity (ln)” value of the first is lower: 7.48 for the first, 8.84 for the second.

Compared with “ATATTTTATTTTAATACACACAAGTTATATAACCAC [CACACA_site6508]”, “TACATATATATATATGTACACACATTAATAAAAAAA [CACACA_site9058]” is higher in “gcPBM binding intensity (ln)” value: 7.2 for the first, 7.46 for the second.

First: AATATAAATAATTATACACACTTAATATATATATAC [CACACA_site5533]
Second: ATATTTAGGAAAAATAGTACACATTTAAATAATAAT [XGTACX_site7989]
The “gcPBM binding intensity (ln)” value of the first is higher: 7.1 for the first, 7.01 for the second.

Compared with “TAGGTGCCTTTTTTCACACACATGTCAACTAAATAT [CACACA_site2656]”, “AAATATATATATATATATATAAATATATACATATAT [TGCATGCA_negctrl_site517]” is lower in “gcPBM binding intensity (ln)” value: 8.19 for the first, 7.17 for the second.

Compared with “CTTTAAATTAATAAAAGTACATTATTTATATATTTT [XGTACX_site4808]”, “AAAATGTCCCGTAGAAAATAAATTTATTACGCAATA [CACACA_negctrl_site1564]” is lower in “gcPBM binding intensity (ln)” value: 7.05 for the first, 6.84 for the second.

Compared with “ATTTATGTTAATAAGTGTACAATAAATTTTTTTTAT [XGTACX_site7658]”, “AACATATATAAATACACACACATATATATATGAAAT [CACACA_site4312]” is higher in “gcPBM binding intensity (ln)” value: 6.94 for the first, 7.05 for the second.

“TATTAGCATGTTATTACACACAATATAAGATATATA [CACACA_site6775]” and “ACATTTTGTGTTTTAGCACACAATTTTTCAGAATAT [CACACA_site2961]” are the same in “gcPBM binding intensity (ln)” value: 6.91 for the first, 6.91 for the second.

Going from “AATATATATTTATAAACACACACCAAAATTTGTGCT [CACACA_site3091]” to “ATATTATAATATTTATGTACATATATATAATATATA [XGTACX_site1633]”, the “gcPBM binding intensity (ln)” value rises from 6.96 to 7.11.
